The values below come from patent US5451518A, “Purified human ceramide-activated protein kinase” (Sloan-Kettering Institute for Cancer Research, priority 1992, dated 1995).

The subject of assay [1] is HL-60 cells. The settings on record: HL-60; cited from earlier work.
For assay [2], the system named is HL-60 cells. The note with it: cited from earlier work.
The test system of assay [3] is ceramide-activated protein kinase. The note with it: read-out: Michaelis constant (Km) for ATP; EL-4 microsomal membrane, baseline. The protocol:
Homogenates were centrifuged at 500×g for 5 minutes to remove nuclei and at 200,000×g for 30 minutes to prepare microsomal membranes. Membranes were resuspended into homogenizing buffer (2.2 μg membrane protein μl^-1). For assay of kinase activity, the reaction mixture contained 20 μl of microsomal membrane, 40 μl EGFR peptide (4 mg ml^-1 in 25 mM Hepes, pH 7.4) and 100 μl buffer (50 mM HEPES, pH 7.4, 20 mM MgCl2) (40). Phosphorylation was initiated at 22° C. by addition of 40 μl [γ-^32 P] ATP (100 μM final concentration) and terminated at the indicated times by addition of 40 μl of 0.5M ATP in 90% formic acid. Phosphorylated peptide was eluted from a C18 Sep pak cartridge (Millipore), lyophilized, and resolved by C18 reverse phase HPLC using a linear gradient of acetonitrile. […] All assays were performed under conditions determined as linear for time and enzyme concentration. Enzyme activity was determined from the percent conversion of substrate to product and the specific radioactivity of [γ-^32 P] ATP. […] Values (mean ± range) represent duplicate determinations from two experiments.
Activity was measured by the transfer of ^32 P from the γ-position of ATP to EGFR peptide (AA 663-681 of the EGFR). The effect of IL-1β on kinase activity was determined using microsomal membranes derived from cells stimulated with IL-1β.

Consider `C=C1/C(=C\C=C2/CCC[C@]3(C)[C@@H]([C@H](C)CCCC(C)(C)O)CC[C@@H]23)C[C@@H](O)C[C@@H]1O` [1,25-dihydroxyvitamin D3, reference compound], for which the “sphingomyelin degradation to ceramide / ceramide level (in words)” value with HL-60 cells [1] is “stimulate sphingomyelin degradation to ceramide”. In addition, the monocytic differentiation result in the assay with HL-60 cells [2] is recorded as “induce monocytic differentiation”. As a reminder, the Km is the substrate concentration at which the rate is half of its maximum. As for `Nc1ncnc2c1ncn2[C@@H]1O[C@H](COP(=O)(O)OP(=O)(O)OP(=O)(O)O)[C@@H](O)[C@H]1O` [ATP, adenosine triphosphate], in assay [3], the Km was 70 µM. As for `CCCCCCCCCCCCC/C=C/[C@@H](O)[C@H](CO)NC(C)=O` [N-acetylsphingosine, reference compound], in the assay with HL-60 cells [2], the monocytic differentiation entry is listed as “could replace these agents in induction of monocytic differentiation”. For sphingomyelinase, the “IL-2 secretion in combination with TPA (in words)” value in the assay on EL4 cells (24 h, listed as Sphingomyelinase) is on record as “induced secretion”. Further, the “concentrations of TPA at which sphingomyelinase induced IL-2 secretion” value in the assay with EL4 cells (sphingomyelinase 1×10^-3 U ml^-1, n=2) lay within 0.5 to 20 ng/mL.
